From PMC4336329 (PLoS ONE, 2015)
Among all 310,000 compounds or so, about 14,000 (4.5%) showed an effect of 50% or more. The effect is printed as a negative number. Some of the results follow.
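Note: peak tail current of the secondary pulse compared with the same well before compound.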

These molecules were tested against human ether-à-go-go-related gene (hERG) potassium channel (human, UniProt Q12809) (assay: primary screen, population patch clamp on CHO cells stably expressing hERG).
Chain of human ether-à-go-go-related gene (hERG) potassium channel (Q12809 whole entry, looked up): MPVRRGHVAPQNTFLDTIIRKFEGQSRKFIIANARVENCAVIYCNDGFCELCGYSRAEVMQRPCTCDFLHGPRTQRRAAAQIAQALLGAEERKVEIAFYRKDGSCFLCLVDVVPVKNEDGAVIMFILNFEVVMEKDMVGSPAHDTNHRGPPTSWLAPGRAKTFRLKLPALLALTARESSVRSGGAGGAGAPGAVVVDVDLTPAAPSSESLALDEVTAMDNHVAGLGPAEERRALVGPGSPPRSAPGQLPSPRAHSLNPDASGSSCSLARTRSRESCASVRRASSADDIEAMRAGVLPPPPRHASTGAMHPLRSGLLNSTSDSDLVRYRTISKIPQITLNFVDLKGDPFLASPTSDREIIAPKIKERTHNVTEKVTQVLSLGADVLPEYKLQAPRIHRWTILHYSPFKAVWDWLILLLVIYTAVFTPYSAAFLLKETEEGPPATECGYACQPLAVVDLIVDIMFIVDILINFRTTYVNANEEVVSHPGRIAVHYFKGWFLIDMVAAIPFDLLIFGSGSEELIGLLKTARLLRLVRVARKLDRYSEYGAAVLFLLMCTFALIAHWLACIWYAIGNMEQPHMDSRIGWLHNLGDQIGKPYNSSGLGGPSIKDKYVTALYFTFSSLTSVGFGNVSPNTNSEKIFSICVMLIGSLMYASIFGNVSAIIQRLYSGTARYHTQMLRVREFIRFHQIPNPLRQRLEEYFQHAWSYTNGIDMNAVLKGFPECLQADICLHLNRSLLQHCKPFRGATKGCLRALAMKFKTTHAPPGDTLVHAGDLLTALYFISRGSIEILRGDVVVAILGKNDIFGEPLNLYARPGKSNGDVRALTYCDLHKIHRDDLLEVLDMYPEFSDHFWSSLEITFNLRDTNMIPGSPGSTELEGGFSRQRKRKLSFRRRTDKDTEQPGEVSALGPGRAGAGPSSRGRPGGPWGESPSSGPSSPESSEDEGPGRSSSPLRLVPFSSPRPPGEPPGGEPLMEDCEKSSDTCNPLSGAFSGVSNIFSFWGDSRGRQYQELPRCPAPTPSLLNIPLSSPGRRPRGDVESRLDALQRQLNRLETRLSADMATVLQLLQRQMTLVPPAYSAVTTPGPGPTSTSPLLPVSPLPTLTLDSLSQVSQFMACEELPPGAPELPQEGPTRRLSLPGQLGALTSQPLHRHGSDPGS
With `Cn1c(=O)c2c(-c3ccccc3)n(C3CCCCC3)cc2n(C)c1=O` the “hERG current change (%, negative = inhibition) at 10uM” value was 7.3%. `CCOc1ccc2nc(NC(=O)c3ccc(S(=O)(=O)N4CCOCC4)cc3)sc2c1` was tested, and the “hERG current change (%, negative = inhibition) at 10uM” value was 6.64%. In the case of `CCCCSc1nnc(-c2ccccc2)c2ccccc12`, the “hERG current change (%, negative = inhibition) at 10uM” value is reported as -37.3%. With `O=C(NCC(=O)N(c1ccc(F)cc1)C(C(=O)NC1CCCC1)c1cccnc1)c1cccs1` (centres unmarked) the “hERG current change (%, negative = inhibition) at 10uM” value was 7.21%. For `O=C(COC(=O)c1cccnc1Cl)Nc1nc(-c2ccccc2)cs1`, the “hERG current change (%, negative = inhibition) at 10uM” value was -10.3%. In the case of `Cc1cccc(NC(=O)CCNS(=O)(=O)c2cc(Br)cnc2N)c1C`, the “hERG current change (%, negative = inhibition) at 10uM” value is reported as 15.8%. `O=C(CN1CCc2ccccc21)NC(=O)NCc1ccccc1` was tested, and the “hERG current change (%, negative = inhibition) at 10uM” value was 0.748%. For `CCC(=O)Oc1oc(-c2ccccc2)nc1C=Nc1ccccc1OC`, the “hERG current change (%, negative = inhibition) at 10uM” value was 13.1%. `O=C(CSc1ncn[nH]1)NCCc1ccc(Cl)cc1` was tested, and the “hERG current change (%, negative = inhibition) at 10uM” value was -25.6%. `CCOc1ccccc1C1C(C(=O)Nc2ccc(OC)cc2)=C(C)Nc2nc(CCCO)nn21` (centres unmarked) was tested, and the “hERG current change (%, negative = inhibition) at 10uM” value was 0.38%. With `COc1cc(NC(=O)C2CC(c3cccc(OC)c3OC)=NO2)cc(OC)c1OC` (centres unmarked) the “hERG current change (%, negative = inhibition) at 10uM” value was -17%. `O=C(Cc1ccccc1)N/N=C/c1ccc(S(=O)(=O)[O-])o1` was tested, and the “hERG current change (%, negative = inhibition) at 10uM” value was 26.2%. With `C/C(=N\OC(=O)c1c(-c2ccccc2Cl)noc1C)c1nccs1` the “hERG current change (%, negative = inhibition) at 10uM” value was -2.44%. With `Cc1cc(Nc2ccc3c(c2)OCCO3)n2ncnc2n1` the “hERG current change (%, negative = inhibition) at 10uM” value was -42.7%. In the case of `CCOC(=O)CNC(=O)CNC(=O)c1nn(-c2ccc(OC)c(Cl)c2)c(=O)c2ccccc12`, the “hERG current change (%, negative = inhibition) at 10uM” value is reported as 2.21%. For `C[N+]1(C)[C@@H]2CC[C@H]1CC(OC(=O)C(c1ccccc1)c1ccccc1)C2.[I-]` (some centres unmarked), the “hERG current change (%, negative = inhibition) at 10uM” value was 18%. For `CC(NC(=O)c1cccnc1)C(c1cccs1)N1CCN(c2ccccc2F)CC1` (centres unmarked), the “hERG current change (%, negative = inhibition) at 10uM” value was -12.3%. With `CCN(CC)S(=O)(=O)c1ccc(NS(=O)(=O)c2ccc3oc(=O)[nH]c3c2)cc1` the “hERG current change (%, negative = inhibition) at 10uM” value was 22.3%. In the case of `COc1ccccc1N1CCN(C(=O)CN(c2cc(C)cc(C)c2)S(C)(=O)=O)CC1`, the “hERG current change (%, negative = inhibition) at 10uM” value is reported as 0.227%. With `COc1cc(/C=C2\SC(=N)N(c3ccc4c(c3)OCO4)C2=O)cc(OC)c1O` the “hERG current change (%, negative = inhibition) at 10uM” value was 8.13%. `CCC(=O)NC(c1ccco1)c1cc(Cl)c2cccnc2c1OC` (centres unmarked) was tested, and the “hERG current change (%, negative = inhibition) at 10uM” value was -7.91%. For `C=CCOc1ccccc1OCC(O)CNC(C)C.Cl` (centres unmarked), the “hERG current change (%, negative = inhibition) at 10uM” value was -9.52%. For `O=C(NCc1ccccn1)c1ccc(=O)oc1`, the “hERG current change (%, negative = inhibition) at 10uM” value was 1.42%. In the case of `O=C(c1nc2ccccn2c1CN1CCCC(c2nc3ccccc3o2)C1)N1CCCC1` (centres unmarked), the “hERG current change (%, negative = inhibition) at 10uM” value is reported as 5.11%. With `O=C(CCc1ccccc1)N1CCN(c2ccc(Cl)cc2)CC1` the “hERG current change (%, negative = inhibition) at 10uM” value was -35.1%. In the case of `O=S(=O)(Nc1ncccn1)c1ccc(NC(=S)NCc2ccco2)cc1`, the “hERG current change (%, negative = inhibition) at 10uM” value is reported as 20.3%. With `CCC(=O)Nc1ccc(S(=O)(=O)N2CCOCC2)cc1` the “hERG current change (%, negative = inhibition) at 10uM” value was -6.39%. In the case of `CC(=O)N1CCc2cc(Br)cc(S(=O)(=O)N3CCCCCC3)c21`, the “hERG current change (%, negative = inhibition) at 10uM” value is reported as -17.5%. In the case of `CC1=NN(c2ccc(C)cc2)C(=O)/C1=C\C=C\c1ccccc1`, the “hERG current change (%, negative = inhibition) at 10uM” value is reported as 16%. For `Cn1c(=O)oc2cc(S(=O)(=O)NCCCN3CCCC3=O)ccc21`, the “hERG current change (%, negative = inhibition) at 10uM” value was 17.2%. With `COc1ccc(C)cc1N(C(=O)c1snc(C(N)=O)c1N)C(C(=O)NC1CCCC1)c1ccc(F)cc1` (centres unmarked) the “hERG current change (%, negative = inhibition) at 10uM” value was -16.1%. With `O=C(N/N=C/c1ccoc1)c1cccc(OC(F)(F)C(F)F)c1` the “hERG current change (%, negative = inhibition) at 10uM” value was -11.6%. With `Cc1cccc(NC(=O)c2ccc(C(=O)c3ccccc3)o2)c1` the “hERG current change (%, negative = inhibition) at 10uM” value was -1.01%. In the case of `Cc1cc(C)cc(NC(=O)Nc2ccc(Cl)cn2)c1`, the “hERG current change (%, negative = inhibition) at 10uM” value is reported as 17.8%. `CSc1ccc(/C=N\NC(=O)CNc2ccc(C)cc2)cc1` was tested, and the “hERG current change (%, negative = inhibition) at 10uM” value was -2.08%. `Cc1ccc(-n2c(C)nc3c(cnn3-c3ccc(F)cc3)c2=O)cc1C` was tested, and the “hERG current change (%, negative = inhibition) at 10uM” value was 18.8%. With `CC(=O)N1CCN(c2ccc(NCc3cccs3)cc2)CC1` the “hERG current change (%, negative = inhibition) at 10uM” value was 8.42%. `CC(C)C(NC(=O)CCN1C(=O)c2ccccc2C1=O)c1ccccc1` (centres unmarked) was tested, and the “hERG current change (%, negative = inhibition) at 10uM” value was 11.4%. For `C=C1CCC[C@]2(C)C[C@H]3OC(=O)C(CN(C)CC(OC)OC)[C@H]3CC12` (some centres unmarked), the “hERG current change (%, negative = inhibition) at 10uM” value was 18.1%. `COc1nc(Nc2ccc(O)cc2)nc(OC(C(F)(F)F)C(F)(F)F)n1` was tested, and the “hERG current change (%, negative = inhibition) at 10uM” value was -38.9%. `O=C(CN(c1ccc2c(c1)OCCO2)S(=O)(=O)c1ccccc1)NCC1CCCO1` (centres unmarked) was tested, and the “hERG current change (%, negative = inhibition) at 10uM” value was -3.97%. For `O=C(O)c1ccc2nc(-c3ccccc3)sc2c1`, the “hERG current change (%, negative = inhibition) at 10uM” value was 8.93%. With `Cc1ccc(NC(=O)C2CCCN2C(=O)Oc2ccccc2)cc1C` (centres unmarked) the “hERG current change (%, negative = inhibition) at 10uM” value was -11.4%. With `CCOc1ccc(S(=O)(=O)NCCC(=O)N(C)Cc2ccc(C)o2)cc1` the “hERG current change (%, negative = inhibition) at 10uM” value was -24.1%. In the case of `CCOn1c(=O)c(-c2ccc(OC)cc2)[n+]([O-])c2ccccc21`, the “hERG current change (%, negative = inhibition) at 10uM” value is reported as -8.86%. In the case of `CCCCN(C)C(=O)c1nc2ccccn2c1CN1CCN(c2ncccn2)CC1`, the “hERG current change (%, negative = inhibition) at 10uM” value is reported as -10.2%. With `COC(=O)CSc1nnc(CNC(=O)c2cccs2)n1-c1cc(OC)ccc1OC` the “hERG current change (%, negative = inhibition) at 10uM” value was -5.9%. For `CCN1CNC(=S)N(c2cccc(C)c2C)C1`, the “hERG current change (%, negative = inhibition) at 10uM” value was 1.39%. In the case of `O=C(CCCN1C(=O)[C@H]2CC=CC[C@H]2C1=O)NCc1nc(-c2ccccc2)no1`, the “hERG current change (%, negative = inhibition) at 10uM” value is reported as 18.6%. For `COc1ccc(C)cc1NC(=O)CSc1nnc(-c2ccc(Br)cc2)o1`, the “hERG current change (%, negative = inhibition) at 10uM” value was -1.05%. `O=C(O)c1cccc(N2C(=O)CSC2=S)c1` was tested, and the “hERG current change (%, negative = inhibition) at 10uM” value was 12.8%. With `O=C(Nc1cccc2c1CCCC2)c1ccncc1` the “hERG current change (%, negative = inhibition) at 10uM” value was -1.71%. `CC(C)(C)c1ccc(C(=O)NCC(=O)N2CCNC(=O)C2)cc1` was tested, and the “hERG current change (%, negative = inhibition) at 10uM” value was -3.47%. In the case of `Cc1oc(-c2ccccc2Cl)nc1CSc1nc2c(c(=O)[nH]1)CCC2`, the “hERG current change (%, negative = inhibition) at 10uM” value is reported as 12.1%. `Cc1c(NP(=S)(C(C)(C)C)C(C)(C)C)c(=O)n(-c2ccccc2)n1C` was tested, and the “hERG current change (%, negative = inhibition) at 10uM” value was 9.18%. For `Cc1ccc(C(=O)COC(=O)c2cccc([N+](=O)[O-])c2)s1`, the “hERG current change (%, negative = inhibition) at 10uM” value was 4.02%.
